From the supplement of paper PMC12230231
± gives the standard deviation of the averaged measurements. Restriction of a single-cycle SIVsab GFP reporter by TRIM5α v1-loop variants in CRFK cells. Human variants: read share among cells still uninfected after two challenges over input, higher = gained restriction. Rhesus variants: share among infected cells over input, higher = lost restriction. Reporter dose not given per row. No active / inactive call per row; the paper calls a change when both replicates lie above its controls (mean + 2 SD of stop or wild-type variants, or the top frameshift score). Residues outside the varied loop are taken from Swiss-Prot. The paper reads the human single-substitution scores as noise; they and the rhesus combinations repeat poorly (rank correlation 0.3 to 0.4), indel scores repeat only for the top variants, rhesus substitutions well (0.9).

Tested on: SIVsab (simian immunodeficiency virus of sabaeus monkeys), single-cycle GFP reporter, in CRFK cells
Experiment: enrichment among uninfected cells over input (fold); higher = stronger restriction
Details: library: human / rhesus combinations
Description: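 Pools of CRFK cells expressing variants of the TRIM5α v1 loop were challenged with the single-cycle reporter, sorted by GFP and sequenced; mean of two replicates.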

How did the enrichment turn out when “MASGILVNVKEEVTCPICLELLTQPLSLDCGHSFCQACLTANHKKSMLDKGESSCPVCRISYQPENIRPNRHVANIVEKLREVKLSPEGQKVDHCARHGEKLLLFCQEDGKVICWLCERSQEHRGHHTFLTEEVAREYQVKLQAALEMLRQKQQEAEELEADIREEKASWKTQIQYDKTNVLADFEQLRDILDWEESNELQNLEKEEEDILKSLTNSETEMVQQTQSLRELISDLEHRLQGSVMELLQGVDGVIKRTENVTLKKPETFPKNQRRVFRAPDLKGMLEVFRELTDVRRYWVDVTVAPNNISCAVISEDKRQVSSPKPQIIYQAPGTLYTFPSLTNFNYCTGILGSQSITSGKHYWEVDVSKKTAWILGVCAGFQPDAMCNIEKNENYQPKYGYWVIGLEEGVKCSAFQDSSFHTPSVPFIVPLSVIICPDRVGVFLDYEACTVSFFNITNHGFLIYKFSHCSFSQPVFPYLNPRKCGVPMTLCSPSS [human TRIM5α, 330-340 = QAPGTLYTFPSLT]” was run?
Its enrichment is 0.0302 ± 0.035.

For “MASGILVNVKEEVTCPICLELLTQPLSLDCGHSFCQACLTANHKKSMLDKGESSCPVCRISYQPENIRPNRHVANIVEKLREVKLSPEGQKVDHCARHGEKLLLFCQEDGKVICWLCERSQEHRGHHTFLTEEVAREYQVKLQAALEMLRQKQQEAEELEADIREEKASWKTQIQYDKTNVLADFEQLRDILDWEESNELQNLEKEEEDILKSLTNSETEMVQQTQSLRELISDLEHRLQGSVMELLQGVDGVIKRTENVTLKKPETFPKNQRRVFRAPDLKGMLEVFRELTDVRRYWVDVTVAPNNISCAVISEDKRQVSSPKPQIIYGAPGTLFTFQSFTNFNYCTGILGSQSITSGKHYWEVDVSKKTAWILGVCAGFQPDAMCNIEKNENYQPKYGYWVIGLEEGVKCSAFQDSSFHTPSVPFIVPLSVIICPDRVGVFLDYEACTVSFFNITNHGFLIYKFSHCSFSQPVFPYLNPRKCGVPMTLCSPSS [human TRIM5α, 330-340 = GAPGTLFTFQSFT]”, which enrichment is on record?
The enrichment was 0.479 ± 0.32.

For “MASGILVNVKEEVTCPICLELLTQPLSLDCGHSFCQACLTANHKKSMLDKGESSCPVCRISYQPENIRPNRHVANIVEKLREVKLSPEGQKVDHCARHGEKLLLFCQEDGKVICWLCERSQEHRGHHTFLTEEVAREYQVKLQAALEMLRQKQQEAEELEADIREEKASWKTQIQYDKTNVLADFEQLRDILDWEESNELQNLEKEEEDILKSLTNSETEMVQQTQSLRELISDLEHRLQGSVMELLQGVDGVIKRTENVTLKKPETFPKNQRRVFRAPDLKGMLEVFRELTDVRRYWVDVTVAPNNISCAVISEDKRQVSSPKPQIIYQAPGTLYTFPTFVNFNYCTGILGSQSITSGKHYWEVDVSKKTAWILGVCAGFQPDAMCNIEKNENYQPKYGYWVIGLEEGVKCSAFQDSSFHTPSVPFIVPLSVIICPDRVGVFLDYEACTVSFFNITNHGFLIYKFSHCSFSQPVFPYLNPRKCGVPMTLCSPSS [human TRIM5α, 330-340 = QAPGTLYTFPTFV]”, which enrichment is on record?
Its enrichment is 0.233 ± 0.06.

“MASGILVNVKEEVTCPICLELLTQPLSLDCGHSFCQACLTANHKKSMLDKGESSCPVCRISYQPENIRPNRHVANIVEKLREVKLSPEGQKVDHCARHGEKLLLFCQEDGKVICWLCERSQEHRGHHTFLTEEVAREYQVKLQAALEMLRQKQQEAEELEADIREEKASWKTQIQYDKTNVLADFEQLRDILDWEESNELQNLEKEEEDILKSLTNSETEMVQQTQSLRELISDLEHRLQGSVMELLQGVDGVIKRTENVTLKKPETFPKNQRRVFRAPDLKGMLEVFRELTDVRRYWVDVTVAPNNISCAVISEDKRQVSSPKPQIIYGAPGTLYTFQSLVNFNYCTGILGSQSITSGKHYWEVDVSKKTAWILGVCAGFQPDAMCNIEKNENYQPKYGYWVIGLEEGVKCSAFQDSSFHTPSVPFIVPLSVIICPDRVGVFLDYEACTVSFFNITNHGFLIYKFSHCSFSQPVFPYLNPRKCGVPMTLCSPSS [human TRIM5α, 330-340 = GAPGTLYTFQSLV]” was tested. Which enrichment did it give?
Its enrichment is 0.231 ± 0.11.

With “MASGILVNVKEEVTCPICLELLTQPLSLDCGHSFCQACLTANHKKSMLDKGESSCPVCRISYQPENIRPNRHVANIVEKLREVKLSPEGQKVDHCARHGEKLLLFCQEDGKVICWLCERSQEHRGHHTFLTEEVAREYQVKLQAALEMLRQKQQEAEELEADIREEKASWKTQIQYDKTNVLADFEQLRDILDWEESNELQNLEKEEEDILKSLTNSETEMVQQTQSLRELISDLEHRLQGSVMELLQGVDGVIKRTENVTLKKPETFPKNQRRVFRAPDLKGMLEVFRELTDVRRYWVDVTVAPNNISCAVISEDKRQVSSPKPQIIYGAPGTRYTFPSLTNFNYCTGILGSQSITSGKHYWEVDVSKKTAWILGVCAGFQPDAMCNIEKNENYQPKYGYWVIGLEEGVKCSAFQDSSFHTPSVPFIVPLSVIICPDRVGVFLDYEACTVSFFNITNHGFLIYKFSHCSFSQPVFPYLNPRKCGVPMTLCSPSS [human TRIM5α, 330-340 = GAPGTRYTFPSLT]” as the sequence, how does the enrichment read?
The enrichment was 0.0907 ± 0.055.

Same assay, conditions: library: insertions and deletions

How did the enrichment turn out when “MASGILVNVKEEVTCPICLELLTQPLSLDCGHSFCQACLTANHKKSMLDKGESSCPVCRISYQPENIRPNRHVANIVEKLREVKLSPEGQKVDHCARHGEKLLLFCQEDGKVICWLCERSQEHRGHHTFLTEEVAREYQVKLQAALEMLRQKQQEAEELEADIREEKASWKTQIQYDKTNVLADFEQLRDILDWEESNELQNLEKEEEDILKSLTNSETEMVQQTQSLRELISDLEHRLQGSVMELLQGVDGVIKRTENVTLKKPETFPKNQRRVFRAPDLKGMLEVFRELTDVRRYWVDVTVAPNNISCAVISEDKRQVSSPKPQIIYGARGTRYQTRYQTFVNFNYCTGILGSQSITSGKHYWEVDVSKKTAWILGVCAGFQPDAMCNIEKNENYQPKYGYWVIGLEEGVKCSAFQDSSFHTPSVPFIVPLSVIICPDRVGVFLDYEACTVSFFNITNHGFLIYKFSHCSFSQPVFPYLNPRKCGVPMTLCSPSS [human TRIM5α, 4-codon duplication at 335]” was run?
The enrichment was 0.302 ± 0.42.

“MASGILVNVKEEVTCPICLELLTQPLSLDCGHSFCQACLTANHKKSMLDKGESSCPVCRISYQPENIRPNRHVANIVEKLREVKLSPEGQKVDHCARHGEKLLLFCQEDGKVICWLCERSQEHRGHHTFLTEEVAREYQVKLQAALEMLRQKQQEAEELEADIREEKASWKTQIQYDKTNVLADFEQLRDILDWEESNELQNLEKEEEDILKSLTNSETEMVQQTQSLRELISDLEHRLQGSVMELLQGVDGVIKRTENVTLKKPETFPKNQRRVFRAPDLKGMLEVFRELTDVRRYWVDVTVAPNNISCAVISEDKRQVSSPKPQIIYGARGTRYQTFVNFVNFNYCTGILGSQSITSGKHYWEVDVSKKTAWILGVCAGFQPDAMCNIEKNENYQPKYGYWVIGLEEGVKCSAFQDSSFHTPSVPFIVPLSVIICPDRVGVFLDYEACTVSFFNITNHGFLIYKFSHCSFSQPVFPYLNPRKCGVPMTLCSPSS [human TRIM5α, 3-codon duplication at 340]” was tested. Which enrichment did it give?
Its enrichment is 0.188 ± 0.0045.

With “MASGILVNVKEEVTCPICLELLTQPLSLDCGHSFCQACLTANHKKSMLDKGESSCPVCRISYQPENIRPNRHVANIVEKLREVKLSPEGQKVDHCARHGEKLLLFCQEDGKVICWLCERSQEHRGHHTFLTEEVAREYQVKLQAALEMLRQKQQEAEELEADIREEKASWKTQIQYDKTNVLADFEQLRDILDWEESNELQNLEKEEEDILKSLTNSETEMVQQTQSLRELISDLEHRLQGSVMELLQGVDGVIKRTENVTLKKPETFPKNQRRVFRAPDLKGMLEVFRELTDVRRYWVDVTVAPNNISCAVISEDKRQVSSPKPQIIYGARGTRYQTFCTGILGSQSITSGKHYWEVDVSKKTAWILGVCAGFQPDAMCNIEKNENYQPKYGYWVIGLEEGVKCSAFQDSSFHTPSVPFIVPLSVIICPDRVGVFLDYEACTVSFFNITNHGFLIYKFSHCSFSQPVFPYLNPRKCGVPMTLCSPSS [human TRIM5α, 5-codon deletion at 340]” as the sequence, how does the enrichment read?
Its enrichment is 1.82 ± 1.

For “MASGILVNVKEEVTCPICLELLTQPLSLDCGHSFCQACLTANHKKSMLDKGESSCPVCRISYQPENIRPNRHVANIVEKLREVKLSPEGQKVDHCARHGEKLLLFCQEDGKVICWLCERSQEHRGHHTFLTEEVAREYQVKLQAALEMLRQKQQEAEELEADIREEKASWKTQIQYDKTNVLADFEQLRDILDWEESNELQNLEKEEEDILKSLTNSETEMVQQTQSLRELISDLEHRLQGSVMELLQGVDGVIKRTENVTLKKPETFPKNQRRVFRAPDLKGMLEVFRELTDVRRYWVDVTVAPNNISCAVISEDKRQVSSPKPQIIYGARGTRYQTFVNFNYCTGILGSNYCTGILGSQSITSGKHYWEVDVSKKTAWILGVCAGFQPDAMCNIEKNENYQPKYGYWVIGLEEGVKCSAFQDSSFHTPSVPFIVPLSVIICPDRVGVFLDYEACTVSFFNITNHGFLIYKFSHCSFSQPVFPYLNPRKCGVPMTLCSPSS [human TRIM5α, 9-codon duplication at 343]”, which enrichment is on record?
Its enrichment is 0.866 ± 0.048.

“MASGILVNVKEEVTCPICLELLTQPLSLDCGHSFCQACLTANHKKSMLDKGESSCPVCRISYQPENIRPNRHVANIVEKLREVKLSPEGQKVDHCARHGEKLLLFCQEDGKVICWLCERSQEHRGHHTFLTEEVAREYQVKLQAALEMLRQKQQEAEELEADIREEKASWKTQIQYDKTNVLADFEQLRDILDWEESNELQNLEKEEEDILKSLTNSETEMVQQTQSLRELISDLEHRLQGSVMELLQGVDGVIKRTENVTLKKPETFPKNQRRVFRAPDLKGMLEVFRELTDVRRYWVDVTVAPNNISCAVISEDKRQVSSPKPQIIYGARGTRYQCTGILGSQSITSGKHYWEVDVSKKTAWILGVCAGFQPDAMCNIEKNENYQPKYGYWVIGLEEGVKCSAFQDSSFHTPSVPFIVPLSVIICPDRVGVFLDYEACTVSFFNITNHGFLIYKFSHCSFSQPVFPYLNPRKCGVPMTLCSPSS [human TRIM5α, 7-codon deletion at 338]” was tested. Which enrichment did it give?
Its enrichment is 1.42 ± 0.95.

“MASGILVNVKEEVTCPICLELLTQPLSLDCGHSFCQACLTANHKKSMLDKGESSCPVCRISYQPENIRPNRHVANIVEKLREVKLSPEGQKVDHCARHGEKLLLFCQEDGKVICWLCERSQEHRGHHTFLTEEVAREYQVKLQAALEMLRQKQQEAEELEADIREEKASWKTQIQYDKTNVLADFEQLRDILDWEESNELQNLEKEEEDILKSLTNSETEMVQQTQSLRELISDLEHRLQGSVMELLQGVDGVIKRTENVTLKKPETFPKNQRRVFRAPDLKGMLEVFRELTDVRRYWVDVTVAPNNISCAVISEDKRQVSSPKPQIIYGARGTRYQFNYCTGILGSQSITSGKHYWEVDVSKKTAWILGVCAGFQPDAMCNIEKNENYQPKYGYWVIGLEEGVKCSAFQDSSFHTPSVPFIVPLSVIICPDRVGVFLDYEACTVSFFNITNHGFLIYKFSHCSFSQPVFPYLNPRKCGVPMTLCSPSS [human TRIM5α, 4-codon deletion at 338]” was tested. Which enrichment did it give?
Its enrichment is 0.943 ± 0.98.

How did the enrichment turn out when “MASGILVNVKEEVTCPICLELLTQPLSLDCGHSFCQACLTANHKKSMLDKGESSCPVCRISYQPENIRPNRHVANIVEKLREVKLSPEGQKVDHCARHGEKLLLFCQEDGKVICWLCERSQEHRGHHTFLTEEVAREYQVKLQAALEMLRQKQQEAEELEADIREEKASWKTQIQYDKTNVLADFEQLRDILDWEESNELQNLEKEEEDILKSLTNSETEMVQQTQSLRELISDLEHRLQGSVMELLQGVDGVIKRTENVTLKKPETFPKNQRRVFRAPDLKGMLEVFRELTDVRRYWVDVTVAPNNISCAVISEDKRQVSSPKPQIIYIIYGARGTRYQTFVNFNYCTGILGSQSITSGKHYWEVDVSKKTAWILGVCAGFQPDAMCNIEKNENYQPKYGYWVIGLEEGVKCSAFQDSSFHTPSVPFIVPLSVIICPDRVGVFLDYEACTVSFFNITNHGFLIYKFSHCSFSQPVFPYLNPRKCGVPMTLCSPSS [human TRIM5α, 3-codon duplication at 327]” was run?
The enrichment was 2.52 ± 0.82.
